# Article PMC12136788
# The list shows a part of the results.
# B1: ENSG00000070961:be:win_6451|3pUTR|ENSG00000070961|bound_else_gene|NA|bound_elsewhere_windowed (ssRNA)
# RNA: GGGAGUUCUACAGUCCGACGAUCUAAGCCAACUGAGAUACCGUGAUGGUGUUGAUUUCUUUCAAUGAUGCUUACCAUCUAUUUUAGCCACUGAGCCUUUUAUUAUUUGUCUAUUUGUAAAGUUUAUUUGUCUUAACUCAUUUACAACAGAGGAUUGAGCAUCA
# B2: chr11:2944997:2945113:-|3pUTR|ENSG00000205531|unk|FALSE|unique (ssRNA)
# RNA: GGGAGUUCUACAGUCCGACGAUCCUGUGUAGAGUAGGGCCCUGUUCUCCUUAGGAUGUUGCUUCUUGAUUUUUUUUUUUUUUUAGGGGUGGGUCAGGGUUGUGACACACCAGCCCAGGUGAGAGCUGCUGCGGGUCACCUCAUCAACAGAGGAUUGAGCAUCA
# B3: chr13:19772241:19772543:-|CDS|ENSG00000121390|control|control|control (ssRNA)
# RNA: GGGAGUUCUACAGUCCGACGAUCAGUAGAGAAAGCUGUUGUGGUUGUGGAUGAUCGCGGUAGAGCUACAGGAAAAGGUUUUGUAGAGUUUGCAGCAAAACCUCCUGCACGAAAGGCUCUGGAAAGAUGUGGUGAUGGGGCAUUCAACAGAGGAUUGAGCAUCA
# B4: chr3:141443649:141443750:+|CDS|ENSG00000177311|unk|FALSE|unique (ssRNA)
# RNA: GGGAGUUCUACAGUCCGACGAUCCCUACCAUUGGACAAAAUGGAGGUUCAUUCACAGGUCCAGAACCUUUAUUAUCUGAAAAUAGGAUUGGUGAAUUUUCCAGUACCGGAAGUACUUUGCCAGACACGGACCACAUGGUUAAACAACAGAGGAUUGAGCAUCA
# B5: chr11:64204363:64204470:+|3pUTR|ENSG00000168439|unk|FALSE|unique (ssRNA)
# RNA: GGGAGUUCUACAGUCCGACGAUCGCCCUCGAGUUCCAUGUCUCUUUCCCCUGCCCCUAGUUGCUGUCUCGGCUGCUCUCCCAUAGUUGGUUUUUUUUUUAUUUGGGGCAGUGGGCAUGUUAUGGGGAGGGGAGGGGGUUCUUCCAACAGAGGAUUGAGCAUCA
# B6: chr11:56742830:56743766:-|CDS|ENSG00000172457|control|control|control (ssRNA)
# RNA: GGGAGUUCUACAGUCCGACGAUCGACAAAGUAGCUGCUCUGUUCUACACCGUGAUCAACCCACUGCUCAACCCUCUCAUCUAUAGCCUGAGAAACAAAGAUAUCAAAGAGGCCUUCAGGAAAGCAACACAGACUAUACAACCACAACAGAGGAUUGAGCAUCA
# B7: chr5:181194513:181194614:-|3pUTR|ENSG00000146054|unk|FALSE|unique (ssRNA)
# RNA: GGGAGUUCUACAGUCCGACGAUCUCUUUGAGUGACAAGCCCGGGACAACAGCCAGUGGGCAUCACGGCUCUCCAGCACUCCUUAGCCGGAGGAUACAGAGUGAUGGGUGCAUCCUGACCAAUGCGACAACCAACACGUGCUCUCAACAGAGGAUUGAGCAUCA
# B8: ENSG00000124766:be:win_2501|3pUTR|ENSG00000124766|bound_else_gene|NA|bound_elsewhere_windowed (ssRNA)
# RNA: GGGAGUUCUACAGUCCGACGAUCGUGUUGGAUUAUUUCAAUGGUGGGGUUAAUAUAGCAUGUUAUCCUGUCUAUCUUUUAAAGAUUUCUGUAUAAGACUGUUGAGCAGUUUUUAAAAUAGUGUAGGAUAAUAUAAAAAGCAGACAACAGAGGAUUGAGCAUCA
# B9: chr16:2708819:2708933:+|3pUTR|ENSG00000167977|unk|FALSE|unique (ssRNA)
# RNA: GGGAGUUCUACAGUCCGACGAUCCUCUCUGGGGAGCUGCUGGCCGCUUAGCGUUGUUUGAUUUUUGACCUUGACAUAGUAGAUAGGCUUGUGGUUUUUUUAAUUUAAAGAUAUUAAGACUUAAUUCACUAAAAUUUAUUCUAACAACAGAGGAUUGAGCAUCA
# B10: chr7:20412513:20412614:+|3pUTR|ENSG00000105855|msi1|FALSE|unique (ssRNA)
# RNA: GGGAGUUCUACAGUCCGACGAUCUCCUUAAAAAUCCAGAGUUUAUAUUUUUUUUAUACCCUCACUUGUUUGCACUAACUUUAUAGUGGACCAAGGCUGUUACCAUAGGAAGGGACAAACUUCCUUGUAGGCAACUCAGUGUUACAACAGAGGAUUGAGCAUCA
# B11: chr13:109754583:109754684:-|3pUTR|ENSG00000185950|msi1|total|mutant (ssRNA)
# RNA: GGGAGUUCUACAGUCCGACGAUCGAUCUCCCUGAACAUUUUUAAGGUUUUACUUUUCUGAAAUUAUACAUCACAGCAGUGCACCGGCCAUAUAAUGUCCGCUGGAAGGUCAAUUUCAGUGUAUGAUAUACUUUAUUAAGAUGUCAACAGAGGAUUGAGCAUCA
# B12: chr15:38470281:38470388:+|CDS|ENSG00000171262|unk|FALSE|unique (ssRNA)
# RNA: GGGAGUUCUACAGUCCGACGAUCCUUCAAGCUUCACAGAUAUUACAGAACAAGAAACAUAAAAAUUCUCAAUUAGAUAAAAAUAGUGAAGUUUAUCAGGAAGUUCAAGCUAUGUUUGAUACACUUGGUAUACCCAAGUCAACACAACAGAGGAUUGAGCAUCA
# B13: chr4:87458373:87458474:+|3pUTR|ENSG00000170502|unk|total|mutant (ssRNA)
# RNA: GGGAGUUCUACAGUCCGACGAUCUCCCUCCCGCUCCCCAUCUUCUGAGGCCUGAAGGAUGUUCCUGCCACAUCAAACUCCUUCCGGCAGAGUACCGCCACUGGAUGUACCGUUUAAUGUUUCAUCUGAUUUUUCUUUAAAUUACAACAGAGGAUUGAGCAUCA
# B14: chr5:38883864:38883977:+|CDS|ENSG00000145623|unk|total|mutant (ssRNA)
# RNA: GGGAGUUCUACAGUCCGACGAUCGUUUUCCCUAAAGAUAAGCUGGUGGAAGAAGGCACCAAUGUUACCAUUUGUUACGUUUCCCGGAACAUUCAAAAUAAUGUAUCCUGUUAUUUGGAAGGGAAACAGAUUCAUGGAGAACAACAACAGAGGAUUGAGCAUCA
# B15: chr11:57661263:57661364:+|CDS|ENSG00000172409|unk|FALSE|unique (ssRNA)
# RNA: GGGAGUUCUACAGUCCGACGAUCCCACCUACUGAGUGUUAGCACUGCCGAGGGUACAGAGGAGAACCUGUCCGAGACAAGUGUAGCUGGCUUCAUUGUGGUGACCAGUGUGGACCUGGAGCAUCAGGUGUUUACUGUUCUGUCCAACAGAGGAUUGAGCAUCA
# B16: chr19:36514967:36515079:-|CDS|ENSG00000254004|unk|FALSE|unique (ssRNA)
# RNA: GGGAGUUCUACAGUCCGACGAUCCAUGAAUGCACUGAAUGUGGUAAAGUGUGCUCUCGAGUCUCAUCUCUUACUCUACACCUUAGAAGUCACACAGGAAAGAAGGCAUAUAAAUGUAAUAAAUGUGGAAAAGCCUUCAGCCAGCAACAGAGGAUUGAGCAUCA
# B17: ENSG00000107863:be:win_2201|CDS|ENSG00000107863|bound_else_gene|NA|bound_elsewhere_windowed (ssRNA)
# RNA: GGGAGUUCUACAGUCCGACGAUCCUGUCAUCCUAAGGGAAAAACCUCCAUCUGGACGCCAGACACCGCAGCCUUUAAGGCAUCAGUCUUACAUCUUGGCAGUAAAUGACCAGGAGACCGGGUCAGACACUACCUGCUGGCUGCCAACAGAGGAUUGAGCAUCA
# B18: chr17:3714672:3714773:-|3pUTR|ENSG00000083457|msi1_unk|FALSE|overlapping (ssRNA)
# RNA: GGGAGUUCUACAGUCCGACGAUCUUUGCAUUACUUUUUCCUUCAGGAUGAUCUAGAGCAGCAUGGAGCUGUUGGUAGAAUAUUAGUUUUUAACCAUACAUUGUCCCAAAAGUGUCUGUGCAUUGUGCAAAAAGUAAACUUAGGCAACAGAGGAUUGAGCAUCA
# B19: ENSG00000107863:be:win_6551|3pUTR|ENSG00000107863|bound_else_gene|NA|bound_elsewhere_windowed (ssRNA)
# RNA: GGGAGUUCUACAGUCCGACGAUCUGGAUGGAACUGGCUUCUUUAUCGAGAAGAAUAUAAUUCUGCAUGAGGACUUAAUGAAUCCAAACCUGUGUCAUGCCUGUGUGCAUACCCAAUUAAACACUGGAAAUAAAAAUUGUUUUGCAACAGAGGAUUGAGCAUCA
# B20: chr1:153626309:153626462:-|CDS|ENSG00000189171|unk|total|mutant (ssRNA)
# RNA: GGGAGUUCUACAGUCCGACGAUCUCCAUUGAGACCGUGGUCACCACCUUCUUCACCUUUGCAAGGCAGGAGGGCCGGAAGGACCGCCUCAGCGUCAACGAGUUCAAAGAGCUGGUUACCCAGCAGUUGCCCCAUCUGCUCAAGCAACAGAGGAUUGAGCAUCA
# B21: chr6:142075650:142076049:-|CDS|ENSG00000135577|control|control|control (ssRNA)
# RNA: GGGAGUUCUACAGUCCGACGAUCGUAUCGGUCUUUCAACUAUAAUGAGAUUGAUCCAUCUCUAGGCCACAUGAUUGUCACCUUAGUUGCCCGGGUUCUCAGUUUUGGCAAUUCUUGUGUCAACCCAUUUGCUCUUUACCUACUCAACAGAGGAUUGAGCAUCA
# B22: chr17:28327902:28328001:+|3pUTR|ENSG00000109084|msi1_unk|total|mutant (ssRNA)
# RNA: GGGAGUUCUACAGUCCGACGAUCUCCCUGUAUCUGAAGUCCCGCAUCUCAAGGCUGAUCUGGAAGUGUGCCCGUAUGCUCCCCCGUGGAUAACUUAAUCUUUUAAUACAGUUCCGUCAUUCCCAUCUUGUUUUCAGAAGAGAACAACAGAGGAUUGAGCAUCA
# Target: MSI1 full-length (mouse, UniProt Q61474 1-362)
# Assay: nsRBNS (natural sequence RNA bind-n-seq); RBNS binding buffer (assumed for nsRBNS): 25 mM Tris pH 7.5, 150 mM KCl, 3 mM MgCl2, 0.01% Triton X-100, 500 ug/ml BSA, 20 U/ml SUPERase-In, 4 C; UNK is unkempt and MSI1 is Musashi-1; names of the RNAs are library labels; protein concentration not given here; high values mean tight binding
# Chain of UniProt Q61474 (Q61474 whole entry): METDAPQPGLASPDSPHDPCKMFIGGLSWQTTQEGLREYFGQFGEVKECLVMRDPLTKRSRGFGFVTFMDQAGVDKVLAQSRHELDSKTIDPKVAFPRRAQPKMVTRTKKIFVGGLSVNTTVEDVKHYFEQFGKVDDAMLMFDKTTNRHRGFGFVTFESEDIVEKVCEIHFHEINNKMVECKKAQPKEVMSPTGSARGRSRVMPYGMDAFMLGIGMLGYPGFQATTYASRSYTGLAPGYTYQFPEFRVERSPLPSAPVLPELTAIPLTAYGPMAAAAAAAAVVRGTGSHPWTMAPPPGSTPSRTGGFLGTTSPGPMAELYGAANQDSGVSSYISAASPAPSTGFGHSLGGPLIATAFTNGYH
row,Binder,binding signal [enrichment R]
1,B1,6.17
2,B2,2.84
3,B3,0.715
4,B4,0.302
5,B5,3.14
6,B6,0.821
7,B7,0.34
8,B8,4.39
9,B9,9.33
10,B10,0.682
11,B11,0.59
12,B12,1.7
13,B13,0.716
14,B14,0.268
15,B15,0.429
16,B16,0.484
17,B17,0.283
18,B18,2.92
19,B19,0.237
20,B20,0.326
21,B21,0.344
22,B22,0.723
